Source: EP4129323A1 (ImmunOs Therapeutics AG, dated 2023)
Numbering of substitutions follows the chain as printed. Numbers in names are those of the source.

B1: HLA-B57.OC (open conformer of the non-variant HLA-B57:01 extracellular domain - IgG4 Fc fusion protein, separated from β2m) (Fc fusion)
chain: GSHSMRYFYTAMSRPGRGEPRFIAVGYVDDTQFVRFDSDAASPRMAPRAPWIEQEGPEYWDGETRNMKASAQTYRENLRIALRYYNQSEAGSHIIQVMYGCDVGPDGRLLRGHDQSAYDGKDYIALNEDLSSWTAADTAAQITQRKWEAARVAEQLRAYLEGLCVEWLRRYLENGKETLQRADPPKTHVTHHPISDHEATLRCWALGFYPAEITLTWQRDGEDQTQDTELVETRPAGDRTFQKWAAVVVPSGEEQRYTCHVQHEGLPKPLTLRWEPSSQSGGGGSGGGGS[letters of human IgG4 Fc with S228P (EU numbers) left out]
notes: Open conformer: β2m was removed under acidic conditions (pH 3.0) and by size exclusion chromatography; also called HLA-B57-Fc; HLA-B57 open conformer
B2: HLA-B57^(A46E/V97R).OC (open conformer of the variant HLA-B57 A46E/V97R extracellular domain - IgG4 Fc fusion protein, separated from β2m) (Fc fusion)
chain: B1 chain with A46E, V97R
notes: Open conformer: β2m was removed under acidic conditions; also called HLA-B57^(A46E/V97R)-Fc; variant HLA-B57 IgG4 Fc fusion protein

Biological target: T1, LILRB2 (c-terminally biotinylated, BPS Bioscience #100335) (UniProt Q8N423 22-460, limits assumed, C-terminal biotin)
T1 construct: Commercial biotinylated protein, immobilised on streptavidin plates at 5 µg/ml; also called immunoglobulin-like receptor subfamily B member 2; LILRB2 receptor
T1 sequence (Q8N423 22-460 limits assumed): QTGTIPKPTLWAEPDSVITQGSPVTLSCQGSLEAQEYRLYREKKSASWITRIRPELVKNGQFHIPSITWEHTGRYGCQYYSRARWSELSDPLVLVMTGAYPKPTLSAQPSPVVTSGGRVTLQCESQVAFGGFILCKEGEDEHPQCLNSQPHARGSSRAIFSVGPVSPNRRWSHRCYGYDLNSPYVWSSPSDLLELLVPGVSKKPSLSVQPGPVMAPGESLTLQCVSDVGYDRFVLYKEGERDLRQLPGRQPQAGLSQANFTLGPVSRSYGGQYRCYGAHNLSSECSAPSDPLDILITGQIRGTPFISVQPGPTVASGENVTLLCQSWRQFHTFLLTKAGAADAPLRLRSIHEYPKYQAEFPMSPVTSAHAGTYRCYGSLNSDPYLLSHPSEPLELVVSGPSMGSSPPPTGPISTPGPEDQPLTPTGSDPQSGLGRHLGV
Assay: ELISA: fusion protein titrated on biotinylated LILRB2 immobilised on streptavidin plates, detected with APC anti-human IgG

Binder	EC50 [nM]
B1	21
B2	8.3
